Measured values: patent publication US20240207396A1 (priority 2021, published 2024)

Test system: Th17 cells (cytokine IL-17F)
Test: Immunological experiment of oligosaccharide vaccine: intracellular IL-17F level of Th17 detected by flow cytometry in immunocompromised (neutropenia) mice
Text: The effectiveness of the vaccine was studied by using an immunocompromised (neutropenia) mouse model. This neutropenia mouse model was considered a suitable model, which can be used for simulating patients developing such deficiency due to treatment of various malignant tumors, chemotherapy and the like. Immune impairment induced by cyclophosphamide injection in mice would increase the sensitivity to fungi, which was similar to the increased susceptibility of neutropenia patients to the disease. To investigate the T cell-mediated immune response, mouse blood was taken and detected for a change in cytokine IL-17F level in Th17 cells to evaluate the immunogenicity of chitosan oligosaccharide-carrier protein vaccine.
6-8-week-old Balb/c female mice were selected, and adaptively fed for 3-7 d. 20 g/L cyclophosphamide was prepared with normal saline, and the cyclophosphamide was injected intraperitoneally by body weight of 200 mg/kg. The number of neutrophils in the mouse blood was measured by a SYSMEX XT-2000i automatic blood analyzer after 3 days. If the number of the neutrophils was <500/mm^3, the experiment could be continued. After that, the cyclophosphamide was injected every 10 days at a dose of 150 mg/kg, which was maintained throughout the test period.
A normal saline blank control group, a KLH group, a chitosan oligosaccharide group, a chitosan oligosaccharide-KLH group in Example 6, a fluconazole group (as a positive control of a challenge test) were set up, with 10 mice in each group. At weeks 0, 2, 4 and 6 at the start of the experiment, the mice were injected subcutaneously from multiple points on the neck and back, with an injection amount of 2.5 mg/kg. The normal saline blank group was injected with normal saline, and the fluconazole group was not injected. The mice were intragastrically administrated by 50 mg/kg d at week 6 for 7 consecutive days. The other groups were injected with tested samples containing adjuvants.
In order to stimulate the organism to produce a strong immune response, Freund's adjuvants were selected. […]

Substance: keyhole limpet hemocyanin [KLH]
- Proportion of Intracellular IL-17F to Th17, After immunization (after the immunization at week 6, 2.5 mg/kg s.c. at weeks 0, 2, 4, 6 with Freund's adjuvants, x ± s, n = 10): 1.486 ± 0.355%
- Proportion of Intracellular IL-17F to Th17, Before immunization (blood lymphocytes before the immunization at week 0, immunocompromised Balb/c mice, x ± s, n = 10): 1.456 ± 0.361%
- Change of proportion of intracellular IL-17F to Th17 after immunization compared with before immunization (in words, vs. before immunization): increased, but the effect was not significant
